The record followed here is PubChem BioAssay AID488969 (Vanderbilt High Throughput Screening Facility, 2010).

In all, about 110,000 compounds were measured (“z-score”: median about -0.1, highest 2% from about 2 on). Some of the results follow. Active and inactive are the calls of the source.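 Rule for the calls: active = z-score in the third read window above 3 or below -3; inactive = the rest.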

This test concerns the target Metabotropic glutamate receptor 8 (Rattus norvegicus) (UniProt P70579). Briefly: rat mGluR8 modulators via GIRK flux, primary screen, cell-based, thallium flux, HTS (AID 488969). The note with it: HEK293 rat mGluR8, GIRK (G protein-gated inwardly rectifying potassium channel) thallium flux, FluoZin2; at 10 µM; stronger effect = higher value; submaximal glutamate (EC20) added with thallium.
Chain of UniProt P70579 (P70579 whole entry, looked up): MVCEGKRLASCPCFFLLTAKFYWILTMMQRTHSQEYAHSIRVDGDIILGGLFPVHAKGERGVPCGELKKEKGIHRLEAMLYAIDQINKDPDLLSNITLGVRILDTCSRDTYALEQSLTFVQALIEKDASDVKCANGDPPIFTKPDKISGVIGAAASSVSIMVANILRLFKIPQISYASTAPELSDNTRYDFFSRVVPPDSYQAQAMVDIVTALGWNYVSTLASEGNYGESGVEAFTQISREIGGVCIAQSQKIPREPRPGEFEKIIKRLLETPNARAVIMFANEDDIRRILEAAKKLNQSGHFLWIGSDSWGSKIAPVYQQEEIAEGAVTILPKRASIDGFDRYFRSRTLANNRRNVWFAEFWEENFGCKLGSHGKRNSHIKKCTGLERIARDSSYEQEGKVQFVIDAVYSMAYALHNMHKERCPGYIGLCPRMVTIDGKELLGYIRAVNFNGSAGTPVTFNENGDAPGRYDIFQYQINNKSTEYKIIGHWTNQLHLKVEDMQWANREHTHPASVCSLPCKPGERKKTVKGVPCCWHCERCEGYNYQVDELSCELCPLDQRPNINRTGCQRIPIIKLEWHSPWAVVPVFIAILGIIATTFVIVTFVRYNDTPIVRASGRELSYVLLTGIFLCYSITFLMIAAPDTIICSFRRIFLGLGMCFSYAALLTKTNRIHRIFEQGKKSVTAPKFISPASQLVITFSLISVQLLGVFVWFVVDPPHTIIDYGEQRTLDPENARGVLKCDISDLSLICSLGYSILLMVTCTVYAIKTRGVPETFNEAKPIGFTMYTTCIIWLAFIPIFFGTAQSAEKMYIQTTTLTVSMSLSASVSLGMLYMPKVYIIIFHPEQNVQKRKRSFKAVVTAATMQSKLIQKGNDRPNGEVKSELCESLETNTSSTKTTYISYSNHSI
The compound `COc1ccccc1NC(=O)c1ccc(COc2ccc3c(c2)CCC3)cc1` registered a z-score of -0.228.

On to `Cc1ccc(-c2csc3nc(C)n(-n4c(C)ccc4C)c(=O)c23)o1`, for which the z-score came out at 0.614.

Take `O=C(N/C(=C/c1ccc(Br)cc1)c1nc2ccccc2[nH]1)c1ccco1`: the z-score worked out at 0.0984.

With `CCc1nc(SCc2cccnc2)c(C#N)cc1C`, the z-score came out at 0.507.

As to `CC1=C(C(=O)Nc2cccnc2)C(c2ccc3c(c2)OCO3)C2=C(CCCC2=O)N1` (stereo not given), the z-score is active: -4.47.

In the case of `Cc1nnc(SCc2cc(=O)[nH]c(N3CCCCC3)n2)s1`, the z-score is 0.132.

Compound `CCN(C(=O)CSc1nc2c(cnn2-c2ccccc2)c(=O)[nH]1)C1CCS(=O)(=O)C1` (stereo not given) yielded a z-score of -0.203.

Regarding `CN1CCC(=NNC(=O)C(=O)NC(C)(C)C)CC1`, the z-score is -0.16.

For `O=c1c2ccc(Cl)cc2nc(-c2cccc(C(F)(F)F)c2)n1O`, the z-score was active: 10.9.

Turning to `CCCCC(CC)CNC(=O)C1C2C=CC(C2)C1C(=O)O` (stereo not given), the z-score is -0.128.

Turning to `O=C(Nc1nccs1)c1sc2ccccc2c1Cl`, the z-score was -0.256.

`Cc1nn(-c2ccc(F)cc2)c(Cl)c1/C=N/NC(=O)c1cccc(S(=O)(=O)N2CCCC2)c1` registered a z-score of -0.115.

`COc1ccc(C(=O)NCc2ccc(N3CCN(C(=O)OC(C)(C)C)CC3)cc2)cc1` yielded a z-score of 0.0243.

For `c1ccc(-c2nnc(CN3CCC4(CC3)OCCO4)o2)cc1`, the z-score is 0.99.

In turn, `Cc1ccc(NC(=O)CN(C)Cc2ccc(F)cc2)c([N+](=O)[O-])c1` had a z-score of -0.39.

Take `CCN1CCN(C(c2ccc(OC)cc2)C(O)C(=O)c2c[nH]c3ccccc23)CC1` (stereo not given): the z-score turned out to be 0.0792.

As for `CCc1ccc(N2CC34C=CC(O3)C(C(=O)OC)C4C2=O)cc1` (stereo not given), the z-score amounted to 0.0324.

Compound `CCOC(=O)c1cc(NC(=O)c2ccc(OC)cc2)c(=O)oc1-c1ccccc1` displayed a z-score of 0.822.

As to `CCc1cc(C(=O)NNC(=S)NC(C)c2ccccc2)cs1` (stereo not given), the z-score was -0.0787.

With `S=C(NCCc1ccccn1)NC1CCCCC1`, the z-score was found to be 0.79.

In turn, `COc1cc2c(cc1NC(=O)Nc1ccccc1)oc1ccccc12` yielded a z-score of -0.0976.

`COC(=O)c1ccccc1NC(=O)c1ccc2c(c1)C(=O)N(Cc1ccco1)C2=O`: the z-score is -0.251.

On to `S=C(NCc1ccco1)Nc1cc(Cl)c(Cl)cc1Cl`, for which the z-score was 0.256.

`Cc1cc(C)c2c(N)c(C(=O)N3CCCCCC3)sc2n1` had a z-score of -0.112.

Regarding `CCN1C(=O)c2cccc3c(S(=O)(=O)Nc4ccccc4OC)ccc1c23`, the z-score is -0.357.

In turn, `CC1CN(C2CCN(S(=O)(=O)c3ccc4ccccc4c3)CC2)CC(C)O1` (stereo not given) registered a z-score of -0.525.

In turn, `Cc1ccc(C(C)C)c(Oc2nnnn2-c2ccccc2)c1` displayed a z-score of 1.78.

Consider `Cc1ccc(CN2CCN(/N=C/c3cc([N+](=O)[O-])ccc3Cl)CC2)cc1`, for which the z-score is -0.188.

Turning to `COc1ccc(NS(=O)(=O)c2ccc(NC(=O)c3ccc(N(C)S(C)(=O)=O)cc3)cc2)cc1`, the z-score came out at 1.47.

`Cc1cccc(N(C(=O)CNC(=O)c2ccco2)C(C(=O)NC2CCCC2)c2ccncc2)c1` (stereo not given): the z-score is -0.0705.

Regarding `CCCCNC(=O)CCn1nc(-c2ccccc2)ccc1=O`, the z-score is -0.431.

`COc1ccc(CN(C(=O)c2ccc3c(c2)OCCO3)C(C(=O)NC2CCCCC2)c2ccc3ncccc3c2)cc1` (stereo not given) gave a z-score of -0.109.

With `c1cnc(Oc2ccc3oc4ccccc4c3c2)nc1`, the z-score came to 0.482.

For the compound `CCOc1ccc2[nH]c(=O)c(CN(CCOC)C(=O)N3CCOCC3)cc2c1`, the z-score is -0.0737.

For the compound `COc1ccc(CNC(=O)C2COc3ccccc3O2)cc1` (stereo not given), the z-score amounted to 0.617.

In turn, `O=C(CCCn1c(=O)[nH]c2ccsc2c1=O)NCc1cccs1` registered a z-score of 0.377.

Turning to `COC(=O)NNC(=S)NCc1ccc(C)cc1`, the z-score is -0.18.

On to `Cn1c(=O)c2ncn(CC(=O)NC3CCCCCC3)c2n(C)c1=O`, for which the z-score is 0.0135.

Take `O=C(Nc1ccc2c(c1)OCCO2)c1ccccc1F`: the z-score was 0.326.

On to `COc1ccc(NC(=O)CSc2nnc3c4c(nc(-c5ccccc5)n23)CC(C)(C)OC4)cc1`, for which the z-score was -0.0793.

In turn, `CC1CCN(S(=O)(=O)c2ccc3c(c2)c(=O)c(C(=O)N2CCCCC2)cn3C)CC1` showed a z-score of 0.338.

`CC1(C)CC(=O)C(CC(=O)NC(=O)NCc2ccccc2)=C(O)C1` registered a z-score of 0.0672.

Consider `Cc1cccc(C(=O)NCCc2nnc(SCC(=O)Nc3nc(C)cs3)n2C)c1`, for which the z-score was 2.62.

As for `COc1ccc(NC(=O)/C=C/c2ccc(C)o2)cc1S(=O)(=O)N1CCOCC1`, the z-score was -0.191.

Consider `COC(=O)C1C2CCC(C2)C1C(=O)OCC(=O)c1ccc(C)cc1` (stereo not given), for which the z-score was -0.107.

`Cc1ccc(S(=O)(=O)c2nc(Nc3ccccc3N3CCOCC3)sc2Cl)cc1` registered a z-score of -0.432.

The compound `CC1(C)CC(=O)C2=C(C1)OC1=C(C(=O)CC(C)(C)C1)C2c1ccccc1` showed a z-score of -0.146.

`Cc1cc(/C=C2/NC(=O)NC2=O)c(C)n1-c1cccnc1` gave a z-score of -0.806.

Regarding `O=C(CCn1c(=O)oc2ccccc21)N1CCc2ccccc21`, the z-score is -0.0986.

Turning to `Cc1ccc(-n2nc3c(n2)/C(=N/O)CC/C3=N\O)cc1`, the z-score was found to be 0.359.

The compound `CCOC(=O)Cc1cc(OC)c(OC)cc1Cc1cc(OC)c(OC)cc1CC(=O)OCC` gave a z-score of 0.379.

In turn, `O=C(O)c1ccc(CSc2nnc(Cc3ccccc3)o2)cc1` showed a z-score of 0.0263.

On to `Cc1ccc([N+](=O)[O-])cc1S(=O)(=O)N(C(=O)c1ccncc1)c1ccc2oc3c(c2c1)CCCC3`, for which the z-score was 0.13.

`O=C(c1ccco1)N1CCCN(C(=O)c2ccco2)CC1`: the z-score was -0.354.

`Cc1cc(=O)[nH]c(SCC(=O)N2c3ccccc3CC2C)n1` (stereo not given) displayed a z-score of -0.586.

In turn, `Cc1ccc(C)c(OCCCC(=O)O)c1` had a z-score of -0.184.

Compound `Cc1cc(=O)oc(C)c1C(=O)NCCCN1C(C)CCCC1C` (stereo not given) returned a z-score of 0.465.

For the compound `Cc1sc2ncn(CC(=O)NCCc3ccccc3)c(=O)c2c1C`, the z-score amounted to 0.251.

The compound `O=C(CN1CCCCC1)NCCNC(=O)CN1CCCCC1` gave a z-score of 0.0176.

For `N#Cc1nc(-c2ccco2)oc1N1CCN(C(c2ccccc2)c2ccccc2)CC1`, the z-score was -0.0381.

In turn, `COC(=O)c1sccc1NC(=O)c1cccc(OC)c1` came in with a z-score of -0.0306.

Compound `Cc1c(C(=O)OC(C)C)[nH]c2c1C(=O)CCC2` yielded a z-score of -0.64.

Turning to `CCSc1nc(C)cc(C)c1S(=O)(=O)c1ccccc1C`, the z-score is -0.237.

On to `CCOC(=O)C1CCC(CN(Cc2ccccc2)S(=O)(=O)c2ccc([N+](=O)[O-])cc2)CC1` (stereo not given), for which the z-score is -0.476.

In the case of `CCOC(=O)Cn1nc(/C=C/c2ccccc2)ccc1=O`, the z-score is -0.0963.

In turn, `O=C(Nc1ccc(N2CCCC(O)C2)cc1)c1snc2c(=O)[nH]cnc12` (stereo not given) yielded a z-score of -0.238.

Turning to `O=C(COc1ccc2ccccc2c1)NCCc1ccc2c(c1)OCCO2`, the z-score was -0.724.

As for `Cc1cc(=O)n2ncnc2n1COCCO`, the z-score was found to be 0.12.

On to `CC(C)Cn1c(-c2nn(C)cc2Cl)n[nH]c1=S`, for which the z-score was found to be 0.244.

Regarding `CCc1cc(=O)oc2cc(C)cc(OC(=O)c3ccco3)c12`, the z-score is -1.04.
